Experimental data: PubChem BioAssay AID902 (National Center for Advancing Translational Sciences (NCATS), 2007)
Out of some 130,000 compounds screened, about 1,900 (1.5%) were called active. This list was built around the results that the source calls inconclusive (neither active nor inactive); the mix of calls is not that of the screen. The call rests on the fitted dose curve; in most records, active means well fitted cell-killing curve with a large enough effect; inconclusive means small, poorly fitted or top-dose-only effect; inactive means no such curve, though single readings can be large or run the other way. A potency beside an inconclusive call is a rough fit, not a confirmed value.

Assay: qHTS Screen for Compounds that Selectively Target Cancer Cells with p53 Mutations: Cytotoxicity of p53ts Cells at the Nonpermissive Temperature; further: nearly all actives have a fitted effect of over 55% in size
Conditions: H1299-p53A138V viability at 39C, ATP luminescence, 24 h; series mostly up to 46.1 µM
Potency means the concentration at half of the fitted maximal effect; tags describe the fitted curve by direction and shape.

SMILES	Potency
CCc1ccc(NC(=O)CSc2nnc3[nH]c(=O)cc(-c4ccccc4)n23)cc1	active: 6.31 µM
COc1cccc2cc(C(=O)Nc3ccc(CC(=O)O)cc3)c(=O)oc12	active: 7.94 µM
Cc1cc2nc(SC(C)C(=O)O)[nH]c2cc1C (centres undefined)	inactive
c1coc(-c2nnc(-c3ccc4c(c3)OCO4)o2)c1	inconclusive: 15.8 µM [cytotoxic, single point]
Cc1cccc(NC(=O)CSc2nc3ccc(NC(=O)COc4ccccc4C)cc3s2)c1	inconclusive: 10 µM [cytotoxic, partial curve]
c1ccc(C2[C@H]3CN(Cc4cccnc4)[C@H](c4ccccc4)C34CC2(c2cccnc2)C4)cc1 (some centres undefined)	inconclusive: 20 µM [cytotoxic, single point]
COCCCNC(=O)CCCOc1ccccc1	inactive
CCn1c(=O)n(-c2ccc3c(c2)OCO3)c2nc(-c3ccc(C(C)C)cc3)nc(C(N)=O)c21	inactive
COc1ccc2[nH]c3c(c2c1)CCn1c-3nc2ccccc2c1=O	inconclusive: 10 µM [cytotoxic, partial curve, poor fit]
O=C(CN1CCN(c2ccccn2)CC1)Nc1ccc2ccccc2c1	inactive
CCOc1ccc(C(=O)c2cn(CC(=O)Nc3ccc4c(c3)OCO4)c3ccc(OC)cc3c2=O)cc1	inconclusive: 31.6 µM [cytotoxic, single point]
Cc1nc2sccn2c(=O)c1CCN1CCC(=C(c2ccccc2)c2ccc(F)cc2)CC1	inconclusive: 31.6 µM [cytotoxic, single point]
CCNC(=O)c1ccc2c(c1)nc1n2CCCCC1	inconclusive: 10 µM [cytotoxic, partial curve]
CC1CCCCN1CCCNC(=O)c1cc(Sc2cccc(Cl)c2)nc2ccccc12 (centres undefined)	inconclusive: 31.6 µM [cytotoxic, single point]
CCOc1ccccc1NC1(c2ccccc2)C(=O)c2ccccc2C1=O	inactive
CCCCN(C(=O)NC(=O)Nc1nc2ccc(OC)cc2s1)S(C)(=O)=O	inconclusive: 25.1 µM [cytotoxic, partial curve]
CC(=O)N1CCCc2cc(S(=O)(=O)N3CCN(c4ccccc4F)CC3)ccc21	inconclusive: 5.01 µM [cytotoxic, full curve, poor fit]
COc1ccc(-c2cc(C(F)(F)F)nc(SCC(=O)Nc3cc(C)on3)n2)cc1OC	inactive
CCn1c2ccccc2c2cc(CN3CCN(Cc4cc(OC)c(O)c(OC)c4)CC3)ccc21	inconclusive: 31.6 µM [cytotoxic, single point]
CCc1cccc(NC(=O)CSc2nncn3c2cc2sccc23)c1	inconclusive: 12.6 µM [cytotoxic, single point]
CCS(=O)(=O)N1CCc2cc(C(=O)N3CCN(c4ccccc4OC)CC3)ccc21	inconclusive: 7.94 µM [cytotoxic, partial curve]
COc1ccc(-n2c(SCC(N)=O)nc3c(oc4ccccc43)c2=O)cc1	inconclusive: 0.0794 µM [cytotoxic, full curve, poor fit]
O=C(Cc1cccs1)Nc1c(C(=O)Nc2ccc(F)cc2)oc2ccccc12	inactive

SMILES	Potency
COc1cc(/C=C(\C#N)c2nc3ccccc3[nH]2)ccc1OCc1ccccc1F	inconclusive: 12.6 µM [cytotoxic, partial curve]
CCOc1ncccc1C(=O)OCc1nnc(-c2ccccc2)o1	inactive
CCOc1ccc2nc(NC(=O)c3nc(SCc4ccccc4C)ncc3Cl)sc2c1	inconclusive: 25.1 µM [cytotoxic, single point]
NC(N)=NC(=O)c1nc(Cl)c(N2CCCCCC2)nc1N	inconclusive: 12.6 µM [cytotoxic, partial curve]
CCOC(=O)Cc1csc(NC(=O)c2ccc3c(c2)OCO3)n1	inactive
Cc1ccc(CNC(=O)[C@H](C)[C@H]2C[C@]2(C)[C@H](NC(=O)OCc2ccccc2)c2ccccc2)c(F)c1F	inconclusive: 3.16 µM [cytotoxic, single point]
O=C(c1ccncc1)N(Cc1cc2ccccc2[nH]c1=O)C1CCCCC1	inconclusive: 12.6 µM [cytotoxic, partial curve]
O=c1sc2ccccc2n1COc1ccccc1	inactive
COc1ccc(CCNC(=O)c2cccc(-n3cnc4cccnc43)c2C)cc1OC	inconclusive: 0.0178 µM [cytotoxic, full curve, poor fit]
CCCCNC(=O)c1nn(-c2ccc(C)cc2)c(=O)n(C)c1=O	inactive
Cc1cccc(N2CCN(C(=O)C3CCCN(S(=O)(=O)c4ccc(Br)s4)C3)CC2)c1C (centres undefined)	inactive
O=c1c(-c2ccc(Cl)cc2)nc2cnc(N3CCNCC3)nc2n1CCc1ccccc1	inconclusive: 20 µM [cytotoxic, single point]
Cc1ccc2scc(N3CCC(C)CC3)c(=O)c2c1	inconclusive: 12.6 µM [cytotoxic, partial curve]
CN1CCN(Cc2nc3c(c(=O)n(C)c(=O)n3C)n2CCc2ccccc2)CC1	inconclusive: 31.6 µM [cytotoxic, single point]
Cc1[nH]c2ccccc2c1C(c1ccccc1)c1ccc(Cl)s1 (centres undefined)	active: 12.6 µM
Clc1ccc(Oc2nc(Oc3ccc(Cl)cc3)nc(N3CCOCC3)n2)cc1	inactive
COc1cccc(NS(=O)(=O)c2ccc3c(c2)[C@H]2C=CC[C@H]2[C@@H](c2ccccc2Cl)N3)c1	inconclusive: 10 µM [cytotoxic, partial curve]
CCOc1ccc(CCNC(=O)Cn2c(-c3cccs3)cc3cc(F)ccc32)cc1OCC	active: 7.94 µM
CC(=O)n1nc(-c2ccco2)nc1SCc1ccccc1	inconclusive: 15.8 µM [cytotoxic, partial curve]
CCCCOc1ccc(C(=O)NCCc2sc(-c3ccc(OC)c(OC)c3)nc2C)cc1	inconclusive: 0.005 µM [cytotoxic, full curve, poor fit]
CCNc1ncc2nc(-c3ccc(F)cc3)c(=O)n(CCOC)c2n1	inactive
COc1ccc(N2CCN(C(=O)CSc3c4c(nc5ccc(Cl)cc35)CCCC4)CC2)cc1	inconclusive: 12.6 µM [cytotoxic, single point]
Cc1ccccc1N=C1NC(=O)CS1	inactive

SMILES	Potency
Cc1oc(-c2ccccc2F)nc1CSCC(=O)N1CCN(c2ccccc2)CC1	inconclusive: 1.58 µM [cytotoxic, partial curve]
CC1CCCN(c2ccc(C(=O)NCCc3ccccc3)cn2)C1 (centres undefined)	inconclusive: 12.6 µM [cytotoxic, partial curve]
Cc1cccc(Nc2ncc(NC(=O)c3cccc(F)c3)c(Nc3cccc(C)c3)n2)c1	inconclusive: 15.8 µM [cytotoxic, single point]
Cc1ccc(-n2nc3c(=O)n(CC(=O)NC(C)C)nc(C)c3c2C)cc1	inconclusive: 20 µM [cytotoxic, partial curve]
CC(=O)Oc1ccc(-c2nc(-c3cccnc3)no2)cc1	inconclusive: 12.6 µM [cytotoxic, partial curve]
CCOc1cc(CNC(=O)c2ccccc2NC(=O)c2nsc3ccccc23)ccc1OC	inconclusive: 6.31 µM [cytotoxic, full curve]
COc1cccc2sc(N3CCN(c4nc5ccccc5s4)CC3)nc12	inactive
CCN(C(=O)CSc1nnc(-c2cc(OC)c(OC)c(OC)c2)o1)c1ccccc1	inconclusive: 15.8 µM [cytotoxic, single point]
Clc1ccc(CCNc2nc3ccccc3c3nc(-c4ccccc4)nn23)cc1	inactive
CCOC(=O)CSc1nc2cc3c(cc2c(=O)n1CCCC(=O)NCc1ccc2c(c1)OCO2)OCO3	inconclusive: 39.8 µM [cytotoxic, single point]
Cc1ccc2ccc(C(Nc3ccccn3)c3ccccc3)c(O)c2n1 (centres undefined)	inconclusive: 10 µM [cytotoxic, partial curve]
CCCn1c(=O)n(-c2ccccc2)c(=O)c2sc3ccccc3c21	inactive
CC(=O)c1nnn(-c2nc(N3CCCC3)nc(N(c3ccccc3)c3ccccc3)n2)c1C	inactive
CCOC(=O)C1CCCN(c2ncnc3c2cnn3-c2ccc(C)c(Cl)c2)C1 (centres undefined)	inactive
Cc1nnc(NC(=O)c2nc(S(=O)(=O)Cc3ccccc3)ncc2Cl)s1	active: 15.8 µM
Cc1nc2c(-c3ccccc3)c(C)nn2c(C)c1CCC(=O)NCc1cccc(Cl)c1	inconclusive: 12.6 µM [cytotoxic, single point]
COc1ccc(-c2noc(C3CC(=O)N(c4cc(C)cc(C)c4)C3)n2)cc1 (centres undefined)	inconclusive: 10 µM [cytotoxic, partial curve]
CCCc1nnc(NC(=O)c2nc(S(=O)(=O)Cc3ccc(C)cc3)ncc2Cl)s1	inconclusive: 25.1 µM [cytotoxic, single point]
Cc1ccc(NC(=O)CSc2nc3ccccc3c3nc(CCn4c(C)nc5ccccc54)nn23)cc1F	inconclusive: 25.1 µM [cytotoxic, single point]
CCN(CC)c1ccc(NC(=O)c2cccc(OC)c2)c(C)c1	inactive
CC1(C(=O)NCCCNc2ncc(C(F)(F)F)cc2Cl)C=CC2(CCCCC2)N1C(=O)c1ccccc1 (centres undefined)	inconclusive: 20 µM [cytotoxic, single point]
CN(C(=O)CSc1nnc2[nH]c(=O)cc(-c3ccccc3)n12)c1ccccc1	inconclusive: 20 µM [cytotoxic, single point]
CC(C)(C)c1ccc(C(=O)Nc2ccccc2C(=O)OCc2cc(=O)n3ccsc3n2)cc1	inconclusive: 1 µM [cytotoxic, full curve]
